Experimental data: the supplement of paper PMC3334620
Over roughly 33,000 sequences, “E-score (-0.5 to 0.5)” has its median near -0.041; the highest 2% begin near 0.37. Some of the results follow.

Target: T1, Ecm22 (UniProt Q05958)
T1 sequence: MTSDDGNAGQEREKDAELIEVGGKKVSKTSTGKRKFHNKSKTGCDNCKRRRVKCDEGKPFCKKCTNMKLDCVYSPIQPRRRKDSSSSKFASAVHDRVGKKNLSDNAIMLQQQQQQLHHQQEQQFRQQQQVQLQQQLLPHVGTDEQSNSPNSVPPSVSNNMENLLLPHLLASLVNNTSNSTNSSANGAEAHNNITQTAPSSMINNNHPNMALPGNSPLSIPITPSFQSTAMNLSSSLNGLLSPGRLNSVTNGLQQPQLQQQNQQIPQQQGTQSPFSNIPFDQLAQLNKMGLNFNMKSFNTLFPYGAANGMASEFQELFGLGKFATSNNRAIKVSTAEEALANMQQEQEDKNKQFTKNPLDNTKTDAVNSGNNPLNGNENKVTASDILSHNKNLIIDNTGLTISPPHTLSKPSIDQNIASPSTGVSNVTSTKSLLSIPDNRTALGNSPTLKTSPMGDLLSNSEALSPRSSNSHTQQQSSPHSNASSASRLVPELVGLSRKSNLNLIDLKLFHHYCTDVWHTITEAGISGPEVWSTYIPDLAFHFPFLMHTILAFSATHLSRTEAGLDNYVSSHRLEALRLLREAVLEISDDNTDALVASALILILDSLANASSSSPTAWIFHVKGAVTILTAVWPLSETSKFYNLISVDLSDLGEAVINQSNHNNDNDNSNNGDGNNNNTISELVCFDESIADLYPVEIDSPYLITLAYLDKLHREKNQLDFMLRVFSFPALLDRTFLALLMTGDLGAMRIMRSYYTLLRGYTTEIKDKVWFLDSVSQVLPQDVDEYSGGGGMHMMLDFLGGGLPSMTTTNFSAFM
Experiment: PBM E-score (8-mer binding enrichment) (E-score (-0.5 to 0.5)); higher = stronger / more preferred TF binding; most listed sequences are background and not binding sites
Settings: protein concentration: 200 nM; construct: GST-full length
Procedure, shortened: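 For each ungapped eight-base word taken together with its reverse complement, the Universal PBM Analysis Suite assigned an E-score. Binding data came from GST-tagged yeast transcription factors, applied at about 100-200 nM, on universal all-10-mer Agilent arrays made double-stranded by primer extension. Fluorescent anti-GST marked bound protein, and scans were normalised with masliner.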

Row | Sequence | PBM E-score
1 | TGTTCGAA | 0.168
2 | GAAATCGA | -0.0317
3 | CCCTTCGA | -0.367
4 | ATTACATG | -0.0576
5 | ATGACGGG | -0.125
6 | CATGGAAG | -0.0835
7 | AAGCAATC | -0.0922
8 | AAAGTAGC | -0.0576
9 | ACTCTGTA | -0.0847
10 | AAGTTTTA | 0.0756
11 | GTTCGAAA | 0.116
12 | ATAGGTTC | 0.00586
13 | AACCCCCT | -0.265
14 | CGTTATCA | 0.0306
15 | TACAGTAA | 0.0166
16 | CTTATGAA | 0.00198
17 | CCCGGCGA | 0.00449
18 | CCCCTAAC | -0.155
19 | CATCACAG | -0.211
20 | ACGCGAGA | 0.281
21 | GCAAACGA | 0.433
22 | CTATCTTC | 0.0561

Row | Sequence | PBM E-score
23 | GAGCAAAC | 0.0713
24 | AGGACTAT | -0.265
25 | GAAGCGGA | 0.0159
26 | CCAACGCG | 0.113
27 | AACGCCAT | -0.197
28 | ATGACCAT | -0.00468
29 | CACGAAGG | 0.0498
30 | AACGACGT | 0.435
31 | CTGCATGA | -0.259
32 | GGAACCGA | 0.29
33 | CATTGACA | -0.299
34 | AGTATATG | -0.0215
35 | CCCTCGTA | 0.477
36 | AGGGCGTG | -0.0786
37 | CGCCCGGC | -0.291
38 | AAGATTCC | -0.0838
39 | GCTGAACC | 0.00818
40 | ACACCCGA | 0.132
41 | ATGAAATC | -0.0184
42 | GGAGTACC | -0.167
43 | CCAATGAA | -0.113
44 | CCCCCTAC | -0.387

Row | Sequence | PBM E-score
45 | CGTGTATC | 0.109
46 | ACCACTGA | 0.0134
47 | ATATAGTC | 0.132
48 | CCCATAGG | -0.18
49 | CACATTCC | -0.0999
50 | GTATCAAA | 0.0901
51 | CCTTGGCA | -0.345
52 | ACTTAAAA | -0.11
53 | ATGCGCGC | 0.113
54 | GTTATCGA | 0.0984
55 | ACGGTTGC | 0.0608
56 | AAGGGGCC | -0.211
57 | CGGCTATC | 0.059
58 | CTGGCCAA | -0.193
59 | AGTTATTG | -0.0847
60 | CACCTCGC | 0.144
61 | CAAGCGTA | 0.129
62 | AAGCCCTA | -0.0456
63 | CCCTGCAA | -0.112
64 | CTTAACAC | -0.12
65 | ACGGGAGT | 0.206
66 | AGGCAGAG | -0.165

Row | Sequence | PBM E-score
67 | AACTATTC | -0.00524
68 | ATCTTTTC | -0.0858
69 | TGTGGAAA | -0.026
70 | GGTGGTCA | -0.241
71 | ACTCCACC | -0.142
72 | AGAGAACA | -0.11
73 | ACATAGCC | -0.282
74 | ATTCCCGC | -0.0217
75 | CCCGCTGA | -0.32
76 | AGGAGCCG | -0.0656
77 | CCCTATTC | -0.0484
78 | CCTAAGAG | -0.13
79 | ACTTGGGC | -0.318
80 | AGAGAACC | -0.155
81 | TGGCCCCA | -0.21
82 | AGTCACGC | -0.195
83 | CCGATCGA | 0.0683
84 | ACCTGCCT | -0.116
85 | CTAGATAG | -0.0351
86 | ATACGGAA | 0.374
